Consider 1 molecule from US20220340678A1 (MURAL ONCOLOGY, published 2022).

The assay addresses T1, IL-2/IL-15 receptor on HH cells (human).
T1 chain 1: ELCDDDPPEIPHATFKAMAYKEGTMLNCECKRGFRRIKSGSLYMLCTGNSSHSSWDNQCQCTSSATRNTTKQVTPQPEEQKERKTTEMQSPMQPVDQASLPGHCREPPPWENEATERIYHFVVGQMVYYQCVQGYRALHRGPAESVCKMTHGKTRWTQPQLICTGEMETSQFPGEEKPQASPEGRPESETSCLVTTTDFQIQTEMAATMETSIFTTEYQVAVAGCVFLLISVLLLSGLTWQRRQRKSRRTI
T1 chain 2: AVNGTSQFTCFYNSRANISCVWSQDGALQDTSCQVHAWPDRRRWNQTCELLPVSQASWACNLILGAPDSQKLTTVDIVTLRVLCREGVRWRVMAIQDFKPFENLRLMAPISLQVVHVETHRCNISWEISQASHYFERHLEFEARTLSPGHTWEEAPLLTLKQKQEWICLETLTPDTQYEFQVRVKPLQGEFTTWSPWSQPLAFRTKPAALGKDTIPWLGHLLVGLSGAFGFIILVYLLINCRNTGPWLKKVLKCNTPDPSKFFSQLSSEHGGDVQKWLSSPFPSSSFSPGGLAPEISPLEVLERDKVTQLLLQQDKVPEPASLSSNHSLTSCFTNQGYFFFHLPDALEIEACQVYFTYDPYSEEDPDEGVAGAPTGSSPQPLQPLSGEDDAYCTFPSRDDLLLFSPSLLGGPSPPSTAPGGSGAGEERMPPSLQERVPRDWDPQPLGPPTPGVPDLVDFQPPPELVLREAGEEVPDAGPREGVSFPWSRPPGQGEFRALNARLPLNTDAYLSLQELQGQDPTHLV
T1 chain 3: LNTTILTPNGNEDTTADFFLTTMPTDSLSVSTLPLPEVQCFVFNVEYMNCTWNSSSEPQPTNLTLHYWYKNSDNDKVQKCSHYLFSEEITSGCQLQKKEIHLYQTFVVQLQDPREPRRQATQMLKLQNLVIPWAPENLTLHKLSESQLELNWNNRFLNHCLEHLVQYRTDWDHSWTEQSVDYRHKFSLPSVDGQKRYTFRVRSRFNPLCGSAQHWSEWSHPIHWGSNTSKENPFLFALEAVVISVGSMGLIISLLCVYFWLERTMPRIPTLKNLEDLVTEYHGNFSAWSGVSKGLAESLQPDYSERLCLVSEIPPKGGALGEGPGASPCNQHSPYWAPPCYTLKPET
The experiment in a line: cell-based or functional assay.

B1: Human cpIL-2:IL-2Ra:Fc:Human uPA-ATF (Fc fusion)
chain: SKNFHLRPRDLISNINVIVLELKGSETTFMCEYADETATIVEFLNRWITFSQSIISTLTGGSSSTKKTQLQLEHLLLDLQMILNGINNYKNPKLTRMLTFKFYMPKKATELKHLQCLEEELKPLEEVLNLAQGSGGGSELCDDDPPEIPHATFKAMAYKEGTMLNCECKRGFRRIKSGSLYMLCTGNSSHSSWDNQCQCTSSATRNTTKQVTPQPEEQKERKTTEMQSPMQPVDQASLPGHCREPPPWENEATERIYHFVVGQMVYYQCVQGYRALHRGPAESVCKMTHGKTRWTQPQLICTGGGGS[omitted - about 350 residues with a human IgG1 Fc]
Take B1: the “pSTAT5 EC50, HH cells” value worked out at 2.1 nM.
